Measured values taken from PubChem BioAssay AID686978 (National Center for Advancing Translational Sciences (NCATS), 2013).
Hit rate of the full screen: of about 420,000 compounds, about 64,000 (15%) were called active. Inconclusive results, whose numbers are uncertain, are shown with a selection of clear calls. The call rests on the fitted dose curve; in most records, active means well fitted inhibition curve with a large enough effect; inconclusive means small, poorly fitted or top-dose-only effect; inactive means flat fitted curve, though single readings scatter. No potency is given beside an inconclusive call; the fits are too rough.

Assay: qHTS for Inhibitors of human tyrosyl-DNA phosphodiesterase 1 (TDP1): qHTS in cells in absence of CPT; further: nearly all actives have a fitted effect of over 55% in size
Details: DT40 Tdp1-/- hTDP1 cells, no CPT, ATP luminescence, 48 h; activity change, negative = growth inhibition: at 46.2 µM (top of the series) unless noted
Summary of the method: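 Growth of hTDP1-complemented DT40 Tdp1-knockout cells is measured by ATP luminescence after at least 48 hr compound exposure at 37 °C, with DMSO substituting for the 20 nM CPT used in the parallel screen.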
On the % scale 0 is the no-effect control and ±100 the full control effect; potency means the concentration at half of the fitted maximal effect; tags describe the fitted curve by direction and shape.

SMILES | activity change, negative = growth inhibition | Potency
O=C(Nc1c[nH]c(=O)[nH]c1=O)c1cccc([N+](=O)[O-])c1 | inactive: -11.2% | 
CC(=O)Nc1cccc(NC(=S)Nc2cccc3ccccc23)c1 | inactive: -18.6% | 
Cc1ccc(S(=O)(=O)N(C)C)cc1NC(=O)COC(=O)c1c(C)noc1C | inactive: -6.14% | 
COc1cccc(-c2cc(C(=O)Nc3ccc(OC)cc3OC)no2)c1 | inactive: -15% | 
O=C(c1ccc(F)cc1)N1CCN(C(=O)c2ccc([N+](=O)[O-])cc2)CC1 | inactive: -4.72% | 
CCC(Sc1nc(C)cc(C)n1)C(=O)Nc1nccs1 (stereo unspecified) | inactive: 5.8% | 
COc1cc(/C=C/[N+](=O)[O-])ccc1OC(=O)c1cc2ccccc2oc1=O |  | active: 25.9 µM
CC(C)n1ncc2c(C(=O)N3CCN(Cc4ccc(Br)s4)CC3)cc(C3CC3)nc21 |  | active: 23.1 µM
COc1ccc(-n2cnc3cc(C(=O)NCCC4=CCCCC4)ccc32)cc1 |  | inconclusive [inhibitor, single point]
CCOC(=O)C1=CCN(S(=O)(=O)c2ccc(C)cc2)[C@H]1c1ccccc1Cl |  | inconclusive [inhibitor, single point]
Cc1oc(-c2cccs2)nc1CN1CCN(Cc2ccc(F)c(F)c2)C(CCO)C1 (stereo unspecified) |  | inconclusive [inhibitor, partial curve, poor fit]
CCN(Cc1ccc(O)cc1)CC1CCCN(CCc2cccc(F)c2)C1 (stereo unspecified) |  | inconclusive [inhibitor, single point]
COCCn1c(=S)[nH]c2cc(C(=O)N3CCN(c4ccc(F)cc4)CC3)ccc2c1=O |  | inconclusive [inhibitor, single point]
CCOc1cc(C2NC(=O)NC(C)=C2C(=O)OC(C)CC)cc(Br)c1O (stereo unspecified) |  | inconclusive [inhibitor, single point]
COc1cc(/C=N/NC(=O)C2COc3ccccc3O2)ccc1O (stereo unspecified) | inactive: -17.7% | 
CCCNC(=O)c1cc(C2CCCN(C(=O)c3cc(C(C)(C)C)nn3C)C2)on1 (stereo unspecified) |  | inconclusive [inhibitor, single point]
CC1(C(=O)Nc2ccc3c(c2)OCO3)CCN1C(=O)C1(c2ccc(Cl)cc2)CC1 (stereo unspecified) |  | inconclusive [inhibitor, single point]
CCCCN=C1NN=C(c2ccc(C)c(C)c2)CS1 |  | inconclusive [inhibitor, single point]
O=c1c(-c2cccs2)nc2cnc(N3CCNCC3)nc2n1-c1ccccc1 |  | inconclusive [inhibitor, single point]
COc1cccc(Nc2nc(-c3ccc(O)cc3)cs2)c1 | inactive: -28.4% | 
Cc1nn(CCC(=O)Nc2cccc(C#N)c2)c(C)c1S(=O)(=O)N1CCC(C)CC1 |  | inconclusive [inhibitor, partial curve]
